According to ChEMBL document CHEMBL4888484, “Replenishing the malaria drug discovery pipeline: Screening and hit evaluation of the MMV Hit Generation Library 1 (HGL1) against asexual blood stage Plasmodium falciparum ,using a nano luciferase reporter read-out” (2022):
The whole screen tested about 150,000 compounds, of which about 540 (0.36%) showed an effect of 50% or more. Some of the results follow.

Test system: Plasmodium falciparum
Assay: Primary screen in NF54 nanoGlo assay, in single point, at 2uM, 72h; a lower Z score goes with more inhibition
Assay type: functional, Erythrocyte
Details: timepoint 72 hour

Compound	% Inhibition	Z score
CN1C[C@@H]2C[C@H]1C(=O)N[C@H](Cc1ccccc1)C(=O)NCc1cn(nn1)CCCOc1ccc(cc1Cl)C(=O)N2	14%	-1.89
CN1CCN(c2nc3c(c(N4CCCCC4)n2)CN(C(=O)c2ccccc2)CC3)CC1	5%	-0.75
Cc1ccc(C)c(-c2cc(C(=O)N(CCC(=O)NCC3CC3)CC(C)C)no2)c1	9%	-0.84
Cc1cccc(OCC(=O)Nc2cc(-c3noc(C4CCC4)n3)sc2C)c1	1%	-0.17
Cc1noc(C)c1CC(=O)N1CCCCCCNC(=O)[C@@H]2CCCC[C@@H]21	-17%	2.22
COc1ccc(CN2CC(CN(C(=O)c3ccc(F)cc3)C(C)C)C(c3cccc(C(F)(F)F)c3)C2)cc1 (stereo not given)	-16%	2.28
Cc1ncsc1CN(Cc1ccccc1)C(=O)[C@@H]1CCCN1S(C)(=O)=O	-14%	2.88
CCOc1ncc(NC(=O)CC)c(OCC)n1	-7%	1.27
COCCNC(=O)c1ccc2c(c1)N(C)[C@@H](CC(=O)NCC(F)F)CO2	-14%	2.04
CCC1(CC)NC(=O)N(CC(=O)Nc2ccc3c(c2)C(=O)NCC3)C1=O	-14%	1.56
CCOCC(=O)N[C@H]1CN(CCS(C)(=O)=O)C[C@@H]1c1ccccc1	-11%	1.96
Cc1noc(-c2cccn3c(CNC(=O)[C@H](C)n4cccn4)nnc23)n1	-18%	2.27
CCN(Cc1nc2ccccc2c(=O)[nH]1)C(=O)C1CCC1	1%	-0.21
Cc1ccc(-n2nc(-c3ccccc3Cl)c(Cl)c2-c2ccccc2Cl)cc1Cl	31%	-3.48
CN(C)c1nc(N[C@H]2COc3ccccc32)ncc1F	3%	-0.47
COCCN(Cc1ccoc1)S(=O)(=O)c1cc(F)ccc1OC	-8%	1
O=C1CC2(CCN(c3ncnc4[nH]ccc34)CC2)CN1	-3%	0.37
O=C(N1CC2CCCCC2C1)C1(c2ccccc2)CCOCC1 (stereo not given)	-2%	0.24
Cc1c(C(=O)O)nn(C(C)C)c1Oc1ccc(NC(=O)CC(C)C)cc1S(=O)(=O)NC(C)C	11%	-1.35
O=S(=O)(C1CC1)N1CCN(Cc2cccc3cc[nH]c23)CC1	-2%	0.3
CN(C)C(=O)OCCn1cc(Br)cn1	-10%	1.36
Cc1cc(C#N)ccc1S(=O)(=O)Nc1[nH]nc(C)c1-c1ccc2c(c1)OCCO2	6%	-1.06

Compound	% Inhibition	Z score
C[C@H](NC(=O)N(CC1CC1)CC1CC1)c1nc(C2CCCCC2)no1	4%	-0.48
Cc1nc(N(C)C)ncc1C(=O)N(C)CCCc1nccn1C	-1%	0.13
CCn1c(N2CCC[C@H](C(=O)NCc3cccc(C)c3)C2)cc(=O)n(C)c1=O	-5%	0.84
CC[C@@H](CC#N)NCc1cn(C(C)(C)C)nn1	-8%	1.24
NC(=O)[C@H]1CCN(C(=O)c2cc3c(s2)CCC3)C1	-2%	0.37
CC(N)C1CCCCN1C(=O)c1ccc2sccc2c1 (stereo not given)	-5%	0.47
Cc1ncccc1C(=O)N(CCN1CCOCC1)C1CCOCC1	-7%	1.13
Cc1cccc(O[C@H]2COCCN(C(=O)COc3ccccc3)C2)n1	32%	-3.6
CCCCS(=O)(=O)NC[C@H](O)c1cccc(Br)c1	-3%	0.45
C=C(C)CN(CC)C(=O)NCC1CCOC1c1ccccc1 (stereo not given)	0%	0.03
CCN1CCC(CC(=O)N(C)Cc2ccc3c(c2)CN(C)C3)CC1	1%	-0.1
Cc1ccc2oc(CN(Cc3cc(F)ccc3F)C(=O)c3ccc(-c4ccccc4)cc3)nc2c1	7%	-1.1
Cc1cc(-c2nc(-c3cccs3)no2)on1	7%	-1.28
Cc1ccnc(N2N=C(CC3CC3)CC2=O)c1	1%	-0.26
CCOc1ccc(CN2C(=O)CC[C@@]2(C)C(=O)NC2CCCC2)cc1	-13%	1.49
CC1(CNC(=O)NCCCCn2ccnc2)CCCC1	-6%	0.8
CNC(=O)c1ccc(N2CCC[C@H](c3nc(C)no3)C2)nn1	2%	-0.35
Nc1nnc(CCNC(=O)CCC(F)(F)F)s1	-20%	1.96
C[C@@H](C1CC1)N(C)C(=O)c1cc(Br)c2c(c1)OCCO2	-10%	1.3
Cc1cc(OC2CN(S(=O)(=O)C3CC3)C2)cc(=O)n1C	-5%	0.59
O=C(c1cnc2cnccc2c1)N1CCOCC2(CC2)C1	-19%	2.17
CC[C@@H](CC#N)OC(=O)c1scnc1C	0%	-0.02

Compound	% Inhibition	Z score
O=C(NCC1(O)CCCCC1)[C@H]1CCC(=O)N(C2CCCCCC2)C1	9%	-1.08
Cc1cccc(CN2CCC3(CCO3)CC2)c1	11%	-1.42
Cc1c(C(=O)Nc2cc(-c3cccnc3)n[nH]2)cnn1C	-7%	0.71
O=C(Nc1ccccc1)c1ccc2cc[nH]c2n1	-11%	1.97
CCc1ccc(C(=O)N[C@H]2CCc3n[nH]c(=O)cc3C2)cc1	-18%	3.06
CN(C(=O)c1cc(S(C)(=O)=O)ccc1Cl)[C@H]1CCCc2cccnc21	-7%	1.12
CCn1cnnc1CN(C)C(=O)COC[C@H]1CCCCO1	5%	-0.9
COCc1ccc(C2CCCN2CC2CCS(=O)(=O)C2)o1 (stereo not given)	5%	-0.57
CC[C@@H](CO)NC(=O)Nc1sc(-c2ccccc2)nc1C	-14%	1.63
O=C(Nc1ccc(NC(=O)N2CCC(C(=O)NCC3CC3)CC2)cc1)NC1CCCC1	-16%	2.11
O=C1CC2(CCN(S(=O)(=O)N3CCc4ccccc4C3)CC2)CN1	-8%	1.37
Cn1c(=O)c2c(nc(N3CCOCC3)n2CCCOc2ccccc2)n(C)c1=O	-6%	0.83
CN(C)c1ncc(NS(=O)(=O)CCCC(F)(F)F)cn1	-1%	0.15
O=C(NC[C@H]1CCCOC1)Nc1cccc(-n2ccnn2)c1	-3%	0.59
Cc1nccc(NC2CCC3(CC2)OCCO3)n1	-5%	0.55
CCc1nc(O)c2sc(=S)n(-c3ccccc3)c2n1	31%	-3.45
COc1ccc(-c2nn3c(c2C)NC(=O)C[C@H]3C(=O)Nc2cc(F)c(F)c(F)c2)cc1	-5%	0.61
Cc1csc(C(C)(C)NC(=O)Nc2cc([C@H]3CCCOC3)nn2C)n1	0%	0.04
Cc1cc2ccccc2c(N2CCC(c3noc(C(C)C)n3)CC2)n1	1%	-0.25
CS(=O)(=O)c1ccc(O[C@@H]2CNCCOC2)cc1	1%	-0.19
COCc1cc(CN(C)C(=O)c2cnn(Cc3ccccc3)c2)n[nH]1	-5%	0.64
Cn1cc(Oc2ccccc2C(=O)Nc2cccnc2O)cn1	30%	-0.47

Compound	% Inhibition	Z score
c1coc(CCc2nc(C3(c4ccncc4)CCC3)no2)c1	-9%	1.14
COc1ccc(NC(=O)N2C[C@@H]3C[C@H]2C[C@@H]3NC(=O)c2ccccc2)c(C)c1	30%	-3.34
Cc1ncoc1C(=O)Oc1ccc(-c2noc(-c3cccnc3)n2)cc1	-10%	2.16
Cc1cccc(C2c3[nH]c4ccccc4c3C[C@H]3C(=O)N(c4ccc5c(c4)OCCO5)C(=O)N23)c1 (stereo not given in full)	-8%	0.98
COC(=O)[C@@H](C)NC(=O)c1coc(COc2ccc3ncccc3c2)n1	9%	-1.05
Cn1cc([C@@H](NC(=O)c2cccc(=O)[nH]2)C(F)(F)F)cn1	-6%	0.96
C[C@H](NC(=O)c1cn(C)c(=O)[nH]c1=O)C1=CCCCC1	5%	-0.85
Cc1nc(-c2ccnc(NCc3cnc(N(C)C)nc3)c2)n[nH]1	5%	-0.63
Cc1ncn(CCNC(=O)[C@H]2C[C@@H]2c2ccccc2)c1C	-3%	0.64
Cc1ncn(C)c1-c1nc(-c2cccc(CN3CCCCC3)c2)no1	-7%	1.35
Cc1ccc(OCCOCCN(C)CCO)c(Cl)c1	2%	-0.3
O=C(Cc1nnc(-c2cnccn2)o1)Nc1ccc(F)c(F)c1	-7%	0.67
Cc1ccc(-c2ccnc(N3CC[C@@H]4OCc5cnnn5[C@H]4C3)n2)c(C)n1	-10%	1.69
O=C(Cn1c(-c2ccccc2)nn(-c2ccccc2Cl)c1=O)N1CC(O)C1	-14%	1.64
Cc1cc(COCC(=O)N2CCc3cc(C)c(C)cc32)no1	-6%	0.84
CCOc1ccccc1CN1CCC(C)(c2noc(C3CCOCC3)n2)CC1	-3%	0.32
O=S(=O)(c1ccc2ccccc2c1)N1CCN(c2nccs2)CC1	-20%	2.75
Cc1cncn1C1CCN(C(=O)[C@]2(C)CC[C@H](C)C2(C)C)CC1	15%	-2.67
CN1CCC(OCCCn2ccnc2-c2ccccc2C(=O)O)CC1	-11%	1.43
